± gives the standard deviation of the averaged measurements. Some of the results follow.
Test system: PfAP2-EXP AP2 domain (GST-tagged)
Assay: gcPBM binding intensity (ln(normalized median fluorescence intensity)); higher = stronger DNA binding
How it was run: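 Binding intensity is defined as the maximum Masliner-normalised natural-log median intensity across replicate spots for either probe orientation. It was measured on an Agilent 4 × 180k array of primer-extended double-stranded 36-bp intergenic genomic probes and negative controls, to which GST-tagged P. falciparum DNA-binding domains made in E. coli were applied for 1 h in 1× PBS with 1% milk, 0.2 mg/ml BSA, 0.5% salmon testes DNA and 0.03% Triton X-100. Detection was by Alexa488 anti-GST antibody and scanning at 488 nm.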

Sequence | gcPBM binding intensity (ln)
TATAATTATATAAATTGTACATAAAAAGTTTTTACT [XGTACX_site3621] | 8.4 ± 0.28
CAATATATTATATGGGTGCAAACCACATATAAATAA | 8.59 ± 0.099
TTAGGTATATATAAACGTACTCACAATATCATATAA [XGTACX_site8743] | 8.61 ± 0.42
AAATGTAATAATAAATGTACAAACATATATATGTAT [XGTACX_site8718] | 8.78 ± 0.57
TATATATACTTTTATGTACACACCTATAATATGGGT [CACACA_site1759] | 8.6 ± 0.33
ATAAATAAATAAAAAAGTACATTTCCACTTTTAACA [XGTACX_site81] | 8.21 ± 0.3
TGCACCCACCAACACACACACAACTAAAAAATAATG [CACACA_site2566] | 8.69 ± 0.43
AAGTTTAAAATCTTTGCACACATATAAATAAATATA [CACACA_site2554] | 8.65 ± 0.56
TTAAATGTAATATAATGTACGGATATTTACCATAAA [XGTACX_site1472] | 8.43 ± 0.37
TTGTAATAAATAAAAGTGCATATATGGTTCCACTAT [GTGCAC_site9944] | 8.37 ± 0.057
AAGTATGTATCACAAAGTACTTAAGCATATATTTAA [XGTACX_site4121] | 8.63 ± 0.42
TAAATATATTGGAGAGGTACACTTTTGGCATTGAAA [XGTACX_site8447] | 8.63 ± 0.42
TACAAATATGGACACACACACATATATATATATATA [CACACA_site4488] | 10 ± 0.53
TTATTTTTTTATTCATGTACACAAGAACATTTCATT [XGTACX_site5744] | 8.61 ± 0.28
GTATAATAGAAACACACACACACACCCAAAAAAAAA [CACACA_site2010] | 8.62 ± 0.52
GTATATATAATGTGCCGTACATTTATATATTCAATA [XGTACX_site1051] | 8.48 ± 0.25
ATTCTACGCACGCGCACACACAACAAAAAAAAAAAA [CACACA_site3538] | 8.4 ± 0.36
GTGATGGTACAATATACACACTTAAAAAAAAAAAAT [CACACA_site5360] | 8.47 ± 0.6
TATATACATATATATTGTACTTATTTTTATAATGTC [XGTACX_site3453] | 8.46 ± 0.3

Sequence | gcPBM binding intensity (ln)
CATGTGTGATAATGATGTACTATATTAAGCTAGTCC [XGTACX_site2690] | 8.33 ± 0.3
TTAAGGCATCAACATAGTACAATTTTTCTATAATAA [XGTACX_site1114] | 8.14 ± 0.35
ATTTAATACAAATACACACACAAATAAATACAGATA [CACACA_site5956] | 8.86 ± 0.38
TTTATAATTCTTACAACACACAATGTACTTTTATAT [CACACA_site8340] | 8.63 ± 0.37
TTTATTTCCTTTTTGTGTACATATATATGTAATTCA [XGTACX_site1718] | 8.91 ± 0.44
TATAAATAAATAGATACACACATATTTATAAATACA [CACACA_site6219] | 8.47 ± 0.48
ATAAAAGATATGTATATGTATATGTATATATATATA [TGCATGCA_negctrl_site214] | 9.8 ± 0.33
TTACGCTGCTATATAGTGCACATAATATATGACCTG | 8.92 ± 0.057
GCTTAAGGTAAATATAAAATATAGTGTATACTTTAG [XGTACX_negctrl_site585] | 8.25 ± 0.4
TTTTATTTATTATTATGTACACACTATATTAAAACA [XGTACX_site1265] | 8.57 ± 0.27
TGAATAATCAATAGTACACACATATAAATATAAATA [CACACA_site7345] | 8.65 ± 0.28
ACTTAGGAAATAAAACGTACATTAAATATATACATA [XGTACX_site2990] | 8.47 ± 0.31
GTATGTATGTATGTATGTACTTATTAATCAGTAAAA [XGTACX_site3844] | 9.245 ± 0.092
TTTTTGTTAACAATGGGTACAAAAAAAAGGAAAATA [XGTACX_site7466] | 8.88 ± 0.47
CCCAAAAAATATCATAGTACTCAACATGACTACTAT [XGTACX_site7838] | 8.87 ± 0.83
AATTTTGTATAGGTATCACACATGAAATATATTATT [CACACA_site5526] | 8.46 ± 0.47
AAATAAAATAATAAAACATGCAAAAATAATGATTTA [TGCATGCA_site415] | 9.03 ± 0.17
ATAAAGATTAACAAAGTGCATTTATATATATAATCT [GTGCAC_site9407] | 8.61 ± 0.35
GGAACTTAAAAAAAATGTACTTATAAAAAAGGAAAT [XGTACX_site8186] | 8.69 ± 0.49

Sequence | gcPBM binding intensity (ln)
AAGAAAAGCATAGATGCACACATATATATATATATA [CACACA_site8675] | 10.2 ± 0.33
AACATGCAAACATGCACACAGAAAAAAAAAATATAT [CACACA_site1565] | 8.89 ± 0.51
TTACACATACATATGTGGGAAAATATTGCTACATAT [CACACA_negctrl_site463] | 8.57 ± 0.49
TATATATATATATATACACACATATATATATTTTTC [CACACA_site3983] | 10.2 ± 0.26
AACAATGGATTATTCACACATAAAAAAATTCACATT [CACACA_site5437] | 8.4 ± 0.43
AATACCTATGGAATTAATAATATGTGTACAGACACA [TGCATGCA_negctrl_site547] | 8.53 ± 0.15
CATTAAACCGTGGGAGCACACACACCCACCCACCCA [CACACA_site8000] | 8.95 ± 0.36
AATTTAAAGAATTGTAGTACAATGAAATATATATAA [XGTACX_site7970] | 8.67 ± 0.45
ATCATTATATTATGGTGTACCCATATATAATTATCA [XGTACX_site551] | 8.44 ± 0.26
AAAAAAATATATATATGTACATAACTTTGTTGTGAT [XGTACX_site5243] | 8.64 ± 0.42
TTTGAACATTTTGCAAGTACAAAAAAATAATATATC [XGTACX_site8079] | 8.37 ± 0.11
TGTTAAATTATTTATCAGATTATTATTTGTAAATAA [CACACA_negctrl_site1535] | 7.92 ± 0.48
ACACATATATATATATATATATATATATATATATAT [CACACA_negctrl_site1766] | 9.84 ± 0.54
CAATTCTTAAGTTCTTGTACGAAAAACGACAATTTA [XGTACX_site3890] | 8.34 ± 0.57
AAGAAAAATAATTAGGGTGAAAATATATAGAGTAAA [TGCATGCA_negctrl_site590] | 8.62 ± 0.47
GGTAATAATATGCATAGTACATAATATATATATATA [XGTACX_site6793] | 9.94 ± 0.2
TATTATATAAAATATTTTATTATATCATCTTCTCTA [XGTACX_negctrl_site319] | 8.29 ± 0.4
ATAATATAAATAATTATACACACTTAATATATATAT [CACACA_site2782] | 9.27 ± 0.071
GTATGTATGTATGTATGTACGTATTTATTTATTTAA [XGTACX_site726] | 9.26 ± 0.099

Source: the supplement of paper PMC11417369
